Measurements: paper PMC4381594
No constants are given. Whether binding was seen depends on the method and setting. Binding seen in cells or lysates may run through a third protein. Some binding calls cover weakened binding; strength is not graded here.

By UniProt entry, the sequences of proteins in these tests, tags left out.
UniProt Q92830: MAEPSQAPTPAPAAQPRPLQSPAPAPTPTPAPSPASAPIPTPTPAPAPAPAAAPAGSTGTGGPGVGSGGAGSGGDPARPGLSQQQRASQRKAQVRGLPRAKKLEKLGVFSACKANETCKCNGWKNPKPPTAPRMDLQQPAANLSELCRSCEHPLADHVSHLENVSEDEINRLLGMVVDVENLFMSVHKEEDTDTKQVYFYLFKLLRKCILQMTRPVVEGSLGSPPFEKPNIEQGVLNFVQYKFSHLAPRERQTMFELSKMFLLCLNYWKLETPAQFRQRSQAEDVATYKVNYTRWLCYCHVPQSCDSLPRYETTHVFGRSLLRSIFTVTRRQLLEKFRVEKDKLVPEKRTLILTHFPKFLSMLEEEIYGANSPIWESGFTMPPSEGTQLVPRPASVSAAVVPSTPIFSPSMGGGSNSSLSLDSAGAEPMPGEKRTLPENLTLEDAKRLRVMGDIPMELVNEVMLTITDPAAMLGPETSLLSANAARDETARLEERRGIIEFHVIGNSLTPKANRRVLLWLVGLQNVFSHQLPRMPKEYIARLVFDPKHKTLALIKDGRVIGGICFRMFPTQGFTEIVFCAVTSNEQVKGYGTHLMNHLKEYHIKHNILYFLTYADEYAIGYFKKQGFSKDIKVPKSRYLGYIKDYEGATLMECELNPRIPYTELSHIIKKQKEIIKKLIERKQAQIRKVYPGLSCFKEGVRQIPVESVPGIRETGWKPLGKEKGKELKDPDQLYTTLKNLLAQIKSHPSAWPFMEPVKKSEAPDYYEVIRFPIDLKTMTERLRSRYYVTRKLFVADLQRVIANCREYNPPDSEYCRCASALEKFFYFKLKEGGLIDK
UniProt Q92831: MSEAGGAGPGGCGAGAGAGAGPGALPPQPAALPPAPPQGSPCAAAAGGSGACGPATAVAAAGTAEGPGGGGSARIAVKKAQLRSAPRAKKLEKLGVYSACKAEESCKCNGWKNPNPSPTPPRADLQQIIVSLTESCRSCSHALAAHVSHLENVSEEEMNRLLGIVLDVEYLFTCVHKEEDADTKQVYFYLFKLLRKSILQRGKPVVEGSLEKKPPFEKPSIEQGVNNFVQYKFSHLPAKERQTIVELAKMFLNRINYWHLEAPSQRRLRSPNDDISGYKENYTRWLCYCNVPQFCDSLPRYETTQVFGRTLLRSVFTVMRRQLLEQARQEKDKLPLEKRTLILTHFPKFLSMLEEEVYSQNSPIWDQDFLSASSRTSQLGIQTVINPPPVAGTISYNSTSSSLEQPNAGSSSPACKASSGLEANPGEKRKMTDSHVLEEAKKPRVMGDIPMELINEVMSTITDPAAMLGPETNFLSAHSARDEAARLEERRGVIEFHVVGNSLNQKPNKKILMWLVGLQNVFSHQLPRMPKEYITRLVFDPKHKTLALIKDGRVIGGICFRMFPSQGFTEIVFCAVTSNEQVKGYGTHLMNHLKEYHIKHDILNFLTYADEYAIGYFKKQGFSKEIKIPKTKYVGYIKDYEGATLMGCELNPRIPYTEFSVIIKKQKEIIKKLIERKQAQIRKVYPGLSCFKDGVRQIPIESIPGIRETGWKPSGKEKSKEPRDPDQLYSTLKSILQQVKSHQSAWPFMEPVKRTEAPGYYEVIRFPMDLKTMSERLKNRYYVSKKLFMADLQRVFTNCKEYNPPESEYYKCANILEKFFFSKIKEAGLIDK

Key:
[1] = target: T1, endogenous XBP-1S (human (endogenous; cell line not named, all cell lines of the paper are human)) (UniProt P17861); experiment: co-IP; endogenous proteins; nuclear extracts of cells treated with 0.1% DMSO (no UPR induction); IP with anti-XBP-1 antibody, Western blot
T1 sequence: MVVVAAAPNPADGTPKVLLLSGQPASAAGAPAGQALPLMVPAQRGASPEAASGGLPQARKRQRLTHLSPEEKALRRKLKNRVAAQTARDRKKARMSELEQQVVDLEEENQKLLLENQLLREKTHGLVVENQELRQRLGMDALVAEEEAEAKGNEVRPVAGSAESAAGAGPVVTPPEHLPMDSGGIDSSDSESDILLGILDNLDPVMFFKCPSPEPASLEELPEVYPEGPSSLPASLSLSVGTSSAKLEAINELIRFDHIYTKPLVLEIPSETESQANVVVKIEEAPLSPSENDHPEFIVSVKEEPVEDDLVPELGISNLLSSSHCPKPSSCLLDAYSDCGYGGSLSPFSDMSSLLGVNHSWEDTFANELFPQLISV

[2] = target: T2, XBP-1U (unspliced isoform of X-box binding protein 1) (human) (UniProt P17861); experiment: co-IP; 293T cells co-transfected with expression plasmids; lysates two days after transfection; IP with anti-XBP-1 antibody (Roche IP kit), Western blot (anti-GCN5 or anti-GFP); normal IgG as control
T2 sequence: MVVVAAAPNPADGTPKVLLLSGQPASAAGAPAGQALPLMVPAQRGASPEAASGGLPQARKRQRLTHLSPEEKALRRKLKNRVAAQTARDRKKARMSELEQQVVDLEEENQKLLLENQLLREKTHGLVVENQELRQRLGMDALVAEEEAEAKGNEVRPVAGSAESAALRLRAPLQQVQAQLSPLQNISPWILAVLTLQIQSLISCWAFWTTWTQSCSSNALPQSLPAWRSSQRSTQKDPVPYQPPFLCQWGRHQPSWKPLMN

[3] = target: T3, XBP-1S, the active isoform of X-box binding protein 1 (human) (UniProt P17861); experiment: as above
T3 sequence: T1 sequence

[4] = target: T3, XBP-1S, the active isoform of X-box binding protein 1 (human); experiment: co-IP; 293T cells co-transfected with PCAF and XBP-1S vectors with or without a GCN5 plasmid; IP with anti-XBP-1 antibody, immunoblot with anti-PCAF or anti-XBP-1; bands quantified by densitometry, PCAF normalised to precipitated XBP-1S

Q: For “endogenous GCN5 (from UniProt Q92830 1-837) (enzyme)”, which binding [1] is on record?
A: The binding was “binds”.

Q: What does the source list for “general control nonderepressible 5 (GCN5) (from UniProt Q92830 1-837) (enzyme)”?
A: binding [2]: no binding; binding [3]: binds

Q: How did the binding [4] turn out when “p300/CBP-associated factor (PCAF) (from UniProt Q92831 1-832) (enzyme)” was run?
A: Its binding is “binds”.
